From the supplement of paper PMC11741623
The list shows a part of the results. Interaction screen of human proteins with wild-type SARS-CoV-2 proteins by split-DHFR complementation in yeast, 1 µg/mL methotrexate. Value = fitness of the pair (three or more lineages) minus that of the viral protein without a human partner, on a scale set by negative (0) and fused positive (1) controls, mean of up to three cultures; higher = more likely to interact. Active = false discovery rate below 0.05 (one-sided t-test) in at least one culture. Nearly all pairs are not hits, and differences among them are mostly noise (correlation between cultures about 0.3); most hits were seen in one culture only. Human sequences are the Swiss-Prot entries looked up by gene name; the clone may be another isoform. NSP2 values were corrected by the authors for a growth advantage. Listed are human proteins with a hit and a random twelfth of the others.

B1: GYG2, O15488 (protein)
chain: MSETEFHHGAQAGLELLRSSNSPTSASQSAGMTVTDQAFVTLATNDIYCQGALVLGQSLRRHRLTRKLVVLITPQVSSLLRVILSKVFDEVIEVNLIDSADYIHLAFLKRPELGLTLTKLHCWTLTHYSKCVFLDADTLVLSNVDELFDRGEFSAAPDPGWPDCFNSGVFVFQPSLHTHKLLLQHAMEHGSFDGADQGLLNSFFRNWSTTDIHKHLPFIYNLSSNTMYTYSPAFKQFGSSAKVVHFLGSMKPWNYKYNPQSGSVLEQGSASSSQHQAAFLHLWWTVYQNNVLPLYKSVQAGEARASPGHTLCHSDVGGPCADSASGVGEPCENSTPSAGVPCANSPLGSNQPAQGLPEPTQIVDETLSLPEGRRSEDMIACPETETPAVITCDPLSQPSPQPADFTETETILQPANKVESVSSEETFEPSQELPAEALRDPSLQDALEVDLAVSVSQISIEEKVKELSPEEERRKWEEGRIDYMGKDAFARIQEKLDRFLQ
B2: KIAA0355, O15063 (protein)
chain: MYCCSAQDSKMDYKRRFLLGGSKQKVQQHQQYPMPELGRALSAPLASTATTAPLGSLTAAGSCHHAMPHTTPIADIQQGISKYLDALNVFCRASTFLTDLFSTVFRNSHYSKAATQLKDVQEHVMEAASRLTSAIKPEIAKMLMELSAGAANFTDQKEFSLQDIEVLGRCFLTVVQVHFQFLTHALQKVQPVAHSCFAEVIVPEKKNSGSGGGLSGMGHTPEVEEAVRSWRGAAEATSRLRERGCDGCLAGIEVQQLFCSQSAAIPEHQLKELNIKIDSALQAYKIALESLGHCEYAMKAGFHLNPKAIEASLQGCCSEAEAQQTGRRQTPPQPMQCELPTVPVQIGSHFLKGVSFNESAADNLKLKTHTMLQLMKEAGCYNGITSRDDFPVTEVLNQVCPSTWRGACKTAVQLLFGQAGLVVVDTAQIENKEAYAPQISLEGSRIVVQVPSTWCLKEDPATMSLLQRSLDPEKTLGLVDVLYTAVLDLNRWRAGREQALPCIQIQLQREICDFGNQADLPSGNGNKSSGGLQKTFSKLTSRFTKKASCTSSSSSTNYSIQNTPSKNIFIAGCSEEKAKMPGNIDTRLQSILNIGNFPRTTDPSQSAQNSSNTVANGFLMERRENFLHGDDGKDEKGMNLPTDQEMQEVIDFLSGFNMGQSHQGSPLVTRHNSAATAMVTEQKAGAMQPQQPSLPVPPPPRAPQAGAHTPLTPQPGLAPQQQSPKQQQPQVQYYQHLLQPIGPQQPPPQPRAPGKWVHGSSQQPAQAVGAGLSPLGQWPGISDLSSDLYSLGLVSSYMDNVMSEVLGQKPQGPRNNTWPNRDQSDGVFGMLGEILPFDPAVGSDPEFARYVAGVSQAMQQKRQAQHGRRPGNPRGNWPPMDDAHRTWPFPEFFTEGDGLHGGWSGAQGDSASSSDETSSANGDSLFSMFSGPDLVAAVKQRRKHSSGEQDTSTLPSPPLLTTVEDVNQDNKTKTWPPKAPWQHPSPLPSTLPSPSAPLYAVTSPGSQWNDTMQMLQSPVWAATNDCSAAAFSYVQTPPQPPPPPAHKAAPKGFKAFPGKGERRPAYLPQY
B3: FAM161A, Q3B820 (protein)
chain: MATSHRVAKLVASSLQTPVNPITGARVAQYEREDPLKALAAAEAILEDEEEEKVAQPAGASADLNTSFSGVDEHAPISYEDFVNFPDIHHSNEEYFKKVEELKAAHIETMAKLEKMYQDKLHLKEVQPVVIREDSLSDSSRSVSEKNSYHPVSLMTSFSEPDLGQSSSLYVSSSEEELPNLEKEYPRKNRMMTYAKELINNMWTDFCVEDYIRCKDTGFHAAEKRRKKRKEWVPTITVPEPFQMMIREQKKKEESMKSKSDIEMVHKALKKQEEDPEYKKKFRANPVPASVFLPLYHDLVKQKEERRRSLKEKSKEALLASQKPFKFIAREEQKRAAREKQLRDFLKYKKKTNRFKARPIPRSTYGSTTNDKLKEEELYRNLRTQLRAQEHLQNSSPLPCRSACGCRNPRCPEQAVKLKCKHKVRCPTPDFEDLPERYQKHLSEHKSPKLLTVCKPFDLHASPHASIKREKILADIEADEENLKETRWPYLSPRRKSPVRCAGVNPVPCNCNPPVPTVSSRGREQAVRKSEKERMREYQRELEEREEKLKKRPLLFERVAQKNARMAAEKHYSNTLKALGISDEFVSKKGQSGKVLEYFNNQETKSVTEDKESFNEEEKIEERENGEENYFIDTNSQDSYKEKDEANEESEEEKSVEESH
B4: IL2RB, P14784 (protein)
chain: MAAPALSWRLPLLILLLPLATSWASAAVNGTSQFTCFYNSRANISCVWSQDGALQDTSCQVHAWPDRRRWNQTCELLPVSQASWACNLILGAPDSQKLTTVDIVTLRVLCREGVRWRVMAIQDFKPFENLRLMAPISLQVVHVETHRCNISWEISQASHYFERHLEFEARTLSPGHTWEEAPLLTLKQKQEWICLETLTPDTQYEFQVRVKPLQGEFTTWSPWSQPLAFRTKPAALGKDTIPWLGHLLVGLSGAFGFIILVYLLINCRNTGPWLKKVLKCNTPDPSKFFSQLSSEHGGDVQKWLSSPFPSSSFSPGGLAPEISPLEVLERDKVTQLLLQQDKVPEPASLSSNHSLTSCFTNQGYFFFHLPDALEIEACQVYFTYDPYSEEDPDEGVAGAPTGSSPQPLQPLSGEDDAYCTFPSRDDLLLFSPSLLGGPSPPSTAPGGSGAGEERMPPSLQERVPRDWDPQPLGPPTPGVPDLVDFQPPPELVLREAGEEVPDAGPREGVSFPWSRPPGQGEFRALNARLPLNTDAYLSLQELQGQDPTHLV

target: SARS-CoV-2 M; assay: yeast fitness gain over the viral ORF with no human partner (scaled fitness); higher = more likely to interact
Description: (§1)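 Split mouse DHFR complementation in pooled diploid yeast: human ORFeome clones carry one fragment and viral ORFs the other; barcoded lineages compete in 1 µg/mL methotrexate and fitness is read by barcode sequencing in up to three cultures.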

| Binder | yeast fitness gain |
| --- | --- |
| B1 | inactive: -0.00785 |
| B2 | inactive: 0.0763 |
| B3 | inactive: 0.00154 |
| B4 | inactive: -0.00968 |

target: SARS-CoV-2 N; assay: as above
Description: as §1

| Binder | yeast fitness gain |
| --- | --- |
| B1 | inactive: 0.0287 |

target: SARS-CoV-2 NSP10; assay: as above
Description: as §1

| Binder | yeast fitness gain |
| --- | --- |
| B1 | inactive: -0.209 |
| B2 | inactive: 0.0484 |
| B3 | inactive: -0.0423 |
| B4 | inactive: -0.0268 |

target: SARS-CoV-2 NSP12; assay: as above
Description: as §1

| Binder | yeast fitness gain |
| --- | --- |
| B1 | inactive: 0.0315 |
| B2 | inactive: 0.095 |
| B3 | inactive: 0.00733 |
| B4 | inactive: -0.0761 |

target: SARS-CoV-2 NSP13; assay: as above
Description: as §1

| Binder | yeast fitness gain |
| --- | --- |
| B1 | inactive: 0.0367 |
| B2 | inactive: 0.0157 |
| B3 | inactive: -0.434 |
| B4 | inactive: -0.195 |

target: SARS-CoV-2 NSP14; assay: as above
Description: as §1

| Binder | yeast fitness gain |
| --- | --- |
| B1 | inactive: 0.0503 |

target: SARS-CoV-2 NSP15; assay: as above
Description: as §1

| Binder | yeast fitness gain |
| --- | --- |
| B1 | inactive: 0.00308 |
| B2 | inactive: 0.0114 |

target: SARS-CoV-2 NSP2; assay: as above
Description: as §1

| Binder | yeast fitness gain |
| --- | --- |
| B1 | inactive: -0.0919 |
| B2 | inactive: -0.101 |
| B3 | inactive: -0.171 |
| B4 | inactive: -0.0562 |

target: SARS-CoV-2 NSP4; assay: as above
Description: as §1

| Binder | yeast fitness gain |
| --- | --- |
| B1 | inactive: 0.118 |

target: SARS-CoV-2 NSP5; assay: as above
Description: as §1

| Binder | yeast fitness gain |
| --- | --- |
| B1 | inactive: -0.0995 |
| B2 | inactive: -0.0415 |
| B3 | inactive: -0.0243 |

target: SARS-CoV-2 NSP6; assay: as above
Description: as §1

| Binder | yeast fitness gain |
| --- | --- |
| B1 | inactive: -0.0235 |
| B2 | inactive: -0.00775 |
| B4 | inactive: -0.12 |

target: SARS-CoV-2 NSP7; assay: as above
Description: as §1

| Binder | yeast fitness gain |
| --- | --- |
| B1 | inactive: 0.0306 |
| B2 | inactive: -0.0585 |
| B3 | inactive: -0.0826 |
| B4 | inactive: 0.0199 |

target: SARS-CoV-2 NSP9; assay: as above
Description: as §1

| Binder | yeast fitness gain |
| --- | --- |
| B1 | inactive: -0.068 |
| B2 | inactive: -0.00865 |
| B3 | inactive: -0.0459 |
| B4 | inactive: 0.184 |

target: SARS-CoV-2 ORF10; assay: as above
Description: as §1

| Binder | yeast fitness gain |
| --- | --- |
| B1 | inactive: -0.0543 |
| B2 | inactive: 0.056 |
| B3 | inactive: 0.00872 |
| B4 | inactive: -0.0629 |

target: SARS-CoV-2 ORF3A; assay: as above
Description: as §1

| Binder | yeast fitness gain |
| --- | --- |
| B1 | inactive: -0.0278 |
| B2 | inactive: -0.081 |

target: SARS-CoV-2 ORF3B; assay: as above
Description: as §1

| Binder | yeast fitness gain |
| --- | --- |
| B1 | inactive: 0.0156 |
| B2 | inactive: -0.0234 |
| B3 | inactive: 0.0692 |
| B4 | inactive: -0.0112 |

target: SARS-CoV-2 ORF6; assay: as above
Description: as §1

| Binder | yeast fitness gain |
| --- | --- |
| B1 | inactive: 0.0426 |
| B2 | inactive: -0.031 |
| B3 | inactive: -0.0422 |
| B4 | inactive: -0.0706 |

target: SARS-CoV-2 ORF7B; assay: as above
Description: as §1

| Binder | yeast fitness gain |
| --- | --- |
| B1 | inactive: -0.11 |
| B2 | inactive: 0.0476 |
| B3 | inactive: -0.203 |
| B4 | inactive: -0.01 |

target: SARS-CoV-2 ORF8; assay: as above
Description: as §1

| Binder | yeast fitness gain |
| --- | --- |
| B1 | inactive: 0.0791 |
| B2 | inactive: -0.0327 |
| B3 | inactive: -0.0602 |
| B4 | inactive: 0.0112 |

target: SARS-CoV-2 ORF9B; assay: as above
Description: as §1

| Binder | yeast fitness gain |
| --- | --- |
| B1 | inactive: 0.0108 |
| B2 | inactive: 0.0731 |
| B3 | inactive: 0.0197 |
| B4 | inactive: -0.0887 |

target: SARS-CoV-2 S; assay: as above
Description: as §1

| Binder | yeast fitness gain |
| --- | --- |
| B1 | inactive: -0.0704 |
| B2 | inactive: 0.00105 |
| B3 | inactive: -0.128 |
| B4 | inactive: 0.0363 |

target: SARS-CoV-2 NSP1; assay: as above
Description: as §1

| Binder | yeast fitness gain |
| --- | --- |
| B2 | inactive: 0.0241 |
| B4 | inactive: -0.00504 |

target: SARS-CoV-2 NSP16; assay: as above
Description: as §1

| Binder | yeast fitness gain |
| --- | --- |
| B2 | inactive: -0.00556 |
| B3 | inactive: -0.0498 |

target: SARS-CoV-2 NSP8; assay: as above
Description: as §1

| Binder | yeast fitness gain |
| --- | --- |
| B2 | inactive: -0.12 |
| B3 | inactive: -0.0669 |

target: SARS-CoV-2 ORF7A; assay: as above
Description: as §1

| Binder | yeast fitness gain |
| --- | --- |
| B2 | inactive: 0.0782 |

target: SARS-CoV-2 ORF9Bwu (the 73-codon ORF); assay: as above
Description: as §1

| Binder | yeast fitness gain |
| --- | --- |
| B2 | inactive: -0.00913 |
| B3 | inactive: 0.0672 |
